Here are results for 86 sequences from the supplement of paper PMC3334620.

In all, about 33,000 sequences were measured (“E-score (-0.5 to 0.5)”: median about -0.035, highest 2% from about 0.35 on). Some of the results follow.

For the test, the target named is T1, Pdr3 (UniProt P33200).
T1 sequence: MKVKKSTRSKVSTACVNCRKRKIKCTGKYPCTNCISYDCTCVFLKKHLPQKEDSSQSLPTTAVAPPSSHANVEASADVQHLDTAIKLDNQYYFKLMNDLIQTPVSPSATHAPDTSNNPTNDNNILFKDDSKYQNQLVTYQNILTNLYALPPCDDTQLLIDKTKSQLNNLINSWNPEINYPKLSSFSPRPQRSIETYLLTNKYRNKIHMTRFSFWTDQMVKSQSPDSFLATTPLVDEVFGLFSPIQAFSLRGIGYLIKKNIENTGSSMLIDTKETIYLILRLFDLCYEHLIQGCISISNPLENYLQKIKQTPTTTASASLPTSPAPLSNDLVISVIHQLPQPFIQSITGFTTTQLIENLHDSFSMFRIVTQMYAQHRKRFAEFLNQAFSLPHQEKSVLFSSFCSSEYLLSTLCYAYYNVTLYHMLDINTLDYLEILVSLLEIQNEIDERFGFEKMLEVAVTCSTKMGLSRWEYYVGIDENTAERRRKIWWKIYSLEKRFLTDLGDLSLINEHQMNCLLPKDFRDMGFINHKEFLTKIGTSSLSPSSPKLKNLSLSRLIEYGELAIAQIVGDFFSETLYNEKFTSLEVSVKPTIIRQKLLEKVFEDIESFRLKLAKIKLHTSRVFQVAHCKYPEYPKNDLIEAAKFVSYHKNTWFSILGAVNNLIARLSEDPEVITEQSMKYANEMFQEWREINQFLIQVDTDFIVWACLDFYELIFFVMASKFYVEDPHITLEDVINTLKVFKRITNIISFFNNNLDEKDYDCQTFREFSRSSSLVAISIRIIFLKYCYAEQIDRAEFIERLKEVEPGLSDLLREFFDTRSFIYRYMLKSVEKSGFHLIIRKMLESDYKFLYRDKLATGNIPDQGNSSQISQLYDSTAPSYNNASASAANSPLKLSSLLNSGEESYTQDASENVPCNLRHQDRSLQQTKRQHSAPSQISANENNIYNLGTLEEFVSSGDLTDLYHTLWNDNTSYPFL
As to the kind of experiment: PBM E-score (8-mer binding enrichment) (E-score (-0.5 to 0.5)); higher = stronger / more preferred TF binding; most listed sequences are background and not binding sites. Particulars: protein concentration: 200 nM; construct: GST-full length. The gist of the method:
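For each ungapped eight-base word taken together with its reverse complement, the Universal PBM Analysis Suite assigned an E-score. Binding data came from GST-tagged yeast transcription factors, applied at about 100-200 nM, on universal all-10-mer Agilent arrays made double-stranded by primer extension. Fluorescent anti-GST marked bound protein, and scans were normalised with masliner.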
As for CGTTGCAG, the “PBM E-score” value was -0.174.

In the case of ACATTAGA, the “PBM E-score” value was -0.151.

With CCTAATAG, the “PBM E-score” value is -0.0343.

Consider GTGCTTTA, for which the “PBM E-score” value was -0.0577.

On to CACACATG, for which the “PBM E-score” value was -0.176.

GAGAGCGA: the “PBM E-score” value was found to be 0.0323.

CCTTTGCC: the “PBM E-score” value was -0.186.

Regarding AATTCGTA, the “PBM E-score” value was found to be 0.0286.

Turning to TCGACTCA, the “PBM E-score” value is 0.0706.

As for CAAGCCGG, the “PBM E-score” value amounted to 0.316.

Take ACGCCTAT: the “PBM E-score” value was -0.114.

Turning to AAGCTTTC, the “PBM E-score” value was 0.065.

As for CGCGACCG, the “PBM E-score” value was found to be 0.141.

On to GAGAGCGC, for which the “PBM E-score” value was determined as 0.0524.

Turning to ACGGGCGG, the “PBM E-score” value was found to be 0.21.

On to TCAGCAAA, for which the “PBM E-score” value is -0.08.

Take ATTTCCTA: the “PBM E-score” value is -0.0987.

With AAGTTTCT, the “PBM E-score” value is -0.13.

On to ATCCGTCA, for which the “PBM E-score” value was determined as 0.305.

In the case of ATGTTACA, the “PBM E-score” value was -0.0716.

For CCAGATTA, the “PBM E-score” value is -0.00749.

As for ACTAGTTC, the “PBM E-score” value is -0.0393.

In the case of ACCCCTTG, the “PBM E-score” value is -0.233.

ATATACAG: the “PBM E-score” value was 0.0396.

With AAAAGTAC, the “PBM E-score” value was -0.087.

As for GGTTAGTA, the “PBM E-score” value was 0.148.

As to GCATCGTA, the “PBM E-score” value is -0.00957.

Consider AGTTCGGG, for which the “PBM E-score” value turned out to be 0.246.

Turning to GCAGTCTA, the “PBM E-score” value is -0.209.

Take ATCTGCAG: the “PBM E-score” value was 0.0199.

Regarding GCAGCTAA, the “PBM E-score” value was -0.106.

Turning to GAAATTAC, the “PBM E-score” value turned out to be 0.0418.

Turning to CGCAGTAA, the “PBM E-score” value turned out to be 0.0584.

For GCGAACGC, the “PBM E-score” value is -0.00654.

For the sequence CAGCTTGC, the “PBM E-score” value was -0.0481.

For the sequence CACTGTTC, the “PBM E-score” value was -0.148.

Turning to TAAGTTCA, the “PBM E-score” value was -0.112.

Consider CTAGCAGC, for which the “PBM E-score” value was -0.146.

Turning to ACCCGTGG, the “PBM E-score” value came to 0.282.

Turning to ATCGATAA, the “PBM E-score” value was 0.0678.

For the sequence CAATATGG, the “PBM E-score” value was -0.121.

As to AACCTACG, the “PBM E-score” value was -0.0983.

As to GTTTTGGA, the “PBM E-score” value was -0.0915.

On to CTCGACAA, for which the “PBM E-score” value is -0.0925.

Regarding ACACGGAA, the “PBM E-score” value stood at 0.438.

As for CAGAGCCA, the “PBM E-score” value was -0.253.

For ATCCTTAC, the “PBM E-score” value is -0.0234.

In the case of ATAGATGA, the “PBM E-score” value was -0.166.

Turning to CGGGCAAA, the “PBM E-score” value stood at 0.241.

Regarding AGGCTTTA, the “PBM E-score” value is -0.36.

As to GACGAAAA, the “PBM E-score” value was determined as 0.131.

With AGTTAGTA, the “PBM E-score” value is -0.106.

As for ACTGCTAC, the “PBM E-score” value was -0.195.

Take AGCCGGCT: the “PBM E-score” value worked out at 0.315.

For the sequence AGGATCTG, the “PBM E-score” value was -0.32.

Take CTTAGCCC: the “PBM E-score” value is -0.0563.

In the case of AGCATCGG, the “PBM E-score” value worked out at 0.105.

As to GGTTTCCA, the “PBM E-score” value is -0.104.

In the case of CGTTAGCA, the “PBM E-score” value is -0.0649.

With CGTTCGTA, the “PBM E-score” value is 0.166.

As to ACGTACCG, the “PBM E-score” value was 0.0979.

On to GAATGATC, for which the “PBM E-score” value worked out at 0.0751.

AGGTACCT: the “PBM E-score” value is -0.213.

CCTGAATC: the “PBM E-score” value was -0.0536.

For the sequence TATGGAGA, the “PBM E-score” value is -0.197.

Consider GCTAAGAA, for which the “PBM E-score” value was -0.0745.

ACCATACA: the “PBM E-score” value was -0.166.

For CGTAAGAG, the “PBM E-score” value is -0.164.

For the sequence GTTGTTAA, the “PBM E-score” value worked out at 0.00071.

On to CTTAGCAC, for which the “PBM E-score” value was determined as 0.0559.

Take GCTATAAA: the “PBM E-score” value is -0.0687.

As for TCGGCCAA, the “PBM E-score” value turned out to be 0.12.

With CGAATGGC, the “PBM E-score” value turned out to be 0.14.

CAGGGACG: the “PBM E-score” value was -0.0975.

In the case of CAGCCCAA, the “PBM E-score” value is -0.0793.

For GGCCACGA, the “PBM E-score” value worked out at 0.0306.

Turning to CCCACTGC, the “PBM E-score” value was 0.0614.

Turning to TAGCTCCA, the “PBM E-score” value is -0.149.

As for CGAACCGA, the “PBM E-score” value was found to be 0.15.

AGTGGCGG: the “PBM E-score” value was 0.11.

Turning to TCGTGCCA, the “PBM E-score” value was -0.066.

GTAACGAC: the “PBM E-score” value was -0.0257.

Take TACCAAAA: the “PBM E-score” value was -0.166.

As to CATTCTTC, the “PBM E-score” value was 0.0866.

As to CACTAGCA, the “PBM E-score” value is -0.276.

Regarding AGATACGA, the “PBM E-score” value was found to be 0.0424.
